Experimental data as given in paper PMC4336329 (PLoS ONE, 2015).
The campaign covered roughly 310,000 compounds. About 14,000 (4.5%) showed an effect of 50% or more. Effects have a minus sign here. Some of the results follow.

molecular target: human ether-à-go-go-related gene (hERG) potassium channel (human, UniProt Q12809); experiment: primary screen, population patch clamp on CHO cells stably expressing hERG
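Further: peak tail current of the secondary pulse compared with the same well before compound.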

Sequence of human ether-à-go-go-related gene (hERG) potassium channel (Q12809 whole entry, looked up): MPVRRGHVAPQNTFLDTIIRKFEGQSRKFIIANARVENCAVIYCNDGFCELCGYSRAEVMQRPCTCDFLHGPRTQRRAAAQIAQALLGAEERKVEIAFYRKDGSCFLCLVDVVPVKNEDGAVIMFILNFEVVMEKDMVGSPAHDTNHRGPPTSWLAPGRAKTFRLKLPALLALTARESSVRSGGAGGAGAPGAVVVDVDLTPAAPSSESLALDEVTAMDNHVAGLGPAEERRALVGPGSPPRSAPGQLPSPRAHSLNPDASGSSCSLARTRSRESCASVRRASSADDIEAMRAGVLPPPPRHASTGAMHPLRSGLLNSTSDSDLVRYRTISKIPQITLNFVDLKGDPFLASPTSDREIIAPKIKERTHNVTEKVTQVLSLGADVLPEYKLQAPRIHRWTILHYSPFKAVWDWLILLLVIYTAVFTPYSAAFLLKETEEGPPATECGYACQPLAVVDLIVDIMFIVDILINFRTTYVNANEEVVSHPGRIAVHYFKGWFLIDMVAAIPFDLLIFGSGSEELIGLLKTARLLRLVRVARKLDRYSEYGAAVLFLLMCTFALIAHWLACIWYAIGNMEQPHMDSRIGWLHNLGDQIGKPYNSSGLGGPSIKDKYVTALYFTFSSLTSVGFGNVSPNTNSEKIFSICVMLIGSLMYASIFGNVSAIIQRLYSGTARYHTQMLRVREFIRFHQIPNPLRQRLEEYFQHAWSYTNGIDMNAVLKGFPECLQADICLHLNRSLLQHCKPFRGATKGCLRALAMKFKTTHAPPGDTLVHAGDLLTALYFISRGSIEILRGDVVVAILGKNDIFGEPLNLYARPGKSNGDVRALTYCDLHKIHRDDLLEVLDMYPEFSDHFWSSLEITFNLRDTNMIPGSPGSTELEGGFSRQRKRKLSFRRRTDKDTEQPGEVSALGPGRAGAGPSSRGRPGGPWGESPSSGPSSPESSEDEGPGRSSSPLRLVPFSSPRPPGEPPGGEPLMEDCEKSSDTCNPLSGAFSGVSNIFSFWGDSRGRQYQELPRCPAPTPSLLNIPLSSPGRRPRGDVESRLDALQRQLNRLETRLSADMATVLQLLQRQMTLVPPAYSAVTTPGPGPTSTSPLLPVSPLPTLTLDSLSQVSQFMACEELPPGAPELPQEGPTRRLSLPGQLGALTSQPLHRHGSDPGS

Compound	hERG current change (%, negative = inhibition) at 10uM [%]
O=C(NCc1ccc2c(c1)OCO2)C1CC(=O)N(c2ccc(F)cc2)C1 (stereo not drawn)	-29.9
CCOc1cc(C(=O)NC(CC(=O)O)c2ccc(OC3CCCC3)cc2)cc(OCC)c1OCC (stereo not drawn)	20
COc1ccc2c(c1)CCc1c(C(=O)NCc3ccco3)noc1-2	-5.9
COCCn1c(SCC(=O)Nc2cc(C)on2)nnc1C(C)C	15.2
COc1cc(C=C2C(=O)OC(C)(C)OC2=O)cc(Cl)c1OCC(=O)Nc1ccccc1	7.77
O=C(NCc1cccs1)c1cnc(Cl)c(Cl)c1	11.7
CC(=O)c1nn(-c2ccc(Cl)cc2)cc1C(=O)c1ccc(C)cc1	8.63
C=CCc1cc(Cl)ccc1OCCNCCCOC.O=C(O)C(=O)O	-37.9
NC(CO)(CO)COCc1ccccc1	10.7
Cc1nc2ccccc2cc1C(=O)N/N=C/c1ccco1	19
COc1cc(CNCCN(C)C)c(Br)cc1OC1CCCC1.Cl	-24.7
COc1cc([N+](=O)[O-])ccc1NC(=S)Nc1cccc(C(=O)O)c1	14.3
O=C(C1CCCN(S(=O)(=O)c2cnc[nH]2)C1)N1CCN(c2ccc(Cl)cc2)CC1 (stereo not drawn)	-35
O=C(NCCCN1CCN(c2cccc(Cl)c2)CC1)c1ccc(N2CCCC2=O)cc1	-26.4
Cc1ccc(OCCC(=O)OCC(=O)NC(=O)NC2CCCC2)cc1	7.88
CCc1ccccc1OCC(=O)NNCC(=O)Nc1cccc(C#N)c1	-12.8
COc1cccc(CN(C)Cc2c(O)ccc3ccccc23)c1	1.89
CCN1CCN(C(=O)C2CCN(S(=O)(=O)c3cc(Cl)ccc3Cl)CC2)CC1	-22.4
COc1ccc(Cl)cc1NC(=O)Cn1cccc1	-19.5
CC(C)OCCCNC(=O)c1cc(-c2cccs2)nc2ccccc12	0.89
CCOC(=O)[C@@H]1[C@H]2COc3ccccc3[C@@H]2N2C(=O)N(c3cccc(C)c3)C(=O)[C@]12C	-33.3
CCOC(=O)C1CCN(C(=O)c2ccccc2NS(=O)(=O)c2ccc(F)c(F)c2)CC1	-14.6
Cc1cc(C(=O)COC(=O)CN(C)S(=O)(=O)c2ccc(Cl)cc2)c(C)n1Cc1cccs1	-5.54

Compound	hERG current change (%, negative = inhibition) at 10uM [%]
O=C(COc1ccc2ccccc2c1)NNC(=O)c1cccs1	5.22
O=C(NCCc1ccccc1)C(=S)N1CCCCC1	9.48
COc1cc(C(=O)Nc2nc(-c3ccc(Cl)cc3)c(C)s2)ccc1OCC(=O)Nc1ccc(F)cc1	8.89
C/C(=N\N1CCN(Cc2ccc(Cl)cc2)CC1)c1ccc(F)cc1	-51.6
Cn1c(NC(=O)/C=C/c2ccc(Cl)c(Cl)c2)cc(=O)n(C)c1=O	6.28
Cn1c(CN2CCCC2)nc2cc(NC(=O)c3ccco3)ccc21	7.42
CC(C)n1c(O)c(N=NC(=O)Cc2csc(N3CCOCC3)n2)c2ccccc21	7.82
C/C(CCC1CC(C)OC1=O)=N\NC(N)=O (stereo not drawn)	21.8
CC(C)OC(=O)CSc1nc2ccccc2s1	-1.21
O=C(CNC(=O)c1ccco1)Nc1cc(Cl)ccc1N1CCOCC1	-2.69
CC(Oc1ccc(Br)cc1)C(=O)NCC(c1ccco1)N1CCCCC1 (stereo not drawn)	-18.6
CCN(CC)S(=O)(=O)c1cccc(-c2n[nH]c(=S)n2CC(C)C)c1	6.22
O=C(c1ccccc1)c1c[nH]c(C(=O)NCc2cccnc2)c1	-3.55
CCOC(=O)N1CCC(N(CCN(C)C)C(=S)Nc2cccc(Cl)c2)CC1	-16.1
CCOC(=O)C(NC(=O)CC(C)C)(Nc1sc(C)c(CC)c1C#N)C(F)(F)F (stereo not drawn)	1.97
CC(C)[C@H](NC(=O)c1ccccc1)C(=O)OCC(=O)N1CCCCCC1	6.63
CCN(CC)C(=O)C1CCCN(C(=O)Nc2ccc3nsnc3c2)C1 (stereo not drawn)	0.262
COc1ccc(CNC(=O)NCc2ccc(OC)c(OC)c2)cc1OC	13.4
CN(C)CC1CCCCC1OC(=O)c1ccc(Cl)c(Cl)c1.Cl (stereo not drawn)	-52.1
O=C(NCCCN1CCCC1=O)C1CCN(S(=O)(=O)c2ccc(F)cc2)CC1	2.75
Cc1nnc(NC(=O)CSc2nnc(Cc3cccn3C)n2-c2cccc(C)c2C)s1	6.15
Cc1cc(=O)[nH]c(SCC(=O)Nc2nc3ccccc3s2)n1	19.2
COC(=O)c1ccc(COc2ccc(C)cc2[N+](=O)[O-])o1	-8.36

Compound	hERG current change (%, negative = inhibition) at 10uM [%]
O=C(NCC1CCCO1)C1CCCN(S(=O)(=O)c2cc(Cl)ccc2Cl)C1 (stereo not drawn)	-2.53
Cc1nc2cc(-c3sccc3-n3cccc3)nn2c(C)c1C	-7.45
CCC(=O)c1cn(CC(=O)Nc2cccc(OC)c2)c2ccccc12	23.3
Cn1c(SCC(=O)N2CCOCC2)nnc1-c1ccncc1	16.3
CSCC[C@H](NC(=O)Cc1c(C)c2c(cc(C)c3c(C)coc32)oc1=O)C(=O)O	10.3
Cc1ccc(NC(=O)Cn2nc(C(=O)Nc3ccc(C)cc3)ccc2=O)cc1	10.8
CN(C)C(=O)c1snnc1-c1ccccc1	5.45
Cc1ccc(Nc2nc(-c3cccs3)cs2)nc1	8.89
CCOc1cc(CNc2ccc3[nH]c(=O)[nH]c3c2)ccc1OCC(=O)NC(C)(C)C	12.4
CC(C)(C)C(=O)OCC1OC(n2cnc(C(N)=O)n2)C(O)C1O (stereo not drawn)	19.8
CCOc1ccc2[nH]c(=O)c(CN(CCO)C3(c4nnnn4C4CCCCC4)CCCCC3)cc2c1	-7.71
C#CCOCCOCCOCCNc1nc(N2CCN(C(=O)Cn3cc(CCC[NH+]=C(N)N)nn3)CC2)nc(N2CCN(C(=O)[C@H]([C@@H](C)O)n3cc(CCCC[NH3+])nn3)CC2)n1.[Cl-]	4.41
COc1ccc(SC[C@H](CC(C)C)N2CCN(CCc3ccccc3)CCC2=O)cc1	-71.3
C=CCn1nc2ccccc2c1OCCO	19
CCNc1nc(NCC)nc(OCCOC(=O)Nc2ccccc2)n1	-0.811
Cc1cc2c(c(N3CCOCC3)n1)C(=O)OC2	11.5
Cc1cc(Cl)c2oc(C(=O)N(C)CCCN3CCOCC3)c(C)c2c1	-42.9
O=C(NCc1ccc2c(c1)OCO2)c1ccccc1	-4.18
COc1cc(NC(=O)CCNC(=O)Cn2ccc3ccccc3c2=O)cc(OC)c1OC	18.1
COc1ccccc1C(=O)C1CCCN(C(=O)CCn2cnnn2)C1 (stereo not drawn)	0.341
FC(F)(F)c1cccc(Cn2cnc(NC(=S)NCCc3ccccc3)n2)c1	7.89
CCC(=O)N1C(C(=O)N2CCCC2)CSC1c1ccc(OC)cc1 (stereo not drawn)	-7.14
Cc1nc(NC(=O)c2ccc(Cl)cc2)sc1-c1csc(Nc2cccc(F)c2)n1	14.7

Compound	hERG current change (%, negative = inhibition) at 10uM [%]
CCN(CC)CCn1c(C)nc2c(sc3nc4c(cc32)COC(C)(C)C4)c1=O	-22.3
Cc1ccnc2c(N3C(=O)C4C5C=CC(C5)C4C3=O)cccc12 (stereo not drawn)	-2.15
CNC(=O)N1c2ccccc2C=Cc2ccccc21	20.1
Cc1ccc2c(c1)CC1(CN2C)C(=O)OC2(CCCCC2)OC1=O	13.4
COC(c1ccccc1)c1nnc(CCC(=O)N2CCCCCCC2)o1 (stereo not drawn)	1.16
COc1cccc(-c2nnc(NC(=O)c3ccco3)s2)c1	12.4
O=C(O)c1ccc(/C=N/Nc2ncc(C(F)(F)F)cc2Cl)cc1	3.54
CC(=O)Nc1sc(-c2ccc(Cl)cc2)nc1-c1ccccc1	0.844
O=C(COC(=O)Cn1cnc2ccccc21)NCCC1=CCCCC1	2.52
CCCN1C2CCCC1CC(NC(=O)c1cccc(Cl)c1)C2 (stereo not drawn)	-38.9
O=C(CN1CCSCC1)N/N=C/c1ccc(F)cc1F	-6.43
CCOC(=O)CC12CN3CN(C1)CC(CC(=O)OCC)(C3)C2=O	8.62
CCOCCCNC(=O)Cc1ccc(F)cc1	7.62
COC(=O)c1ccc(CN2CCN(CC(C)C)C(CCO)C2)cc1 (stereo not drawn)	-3.11
CCOC(=O)/C(C#N)=C1/CCCCCN1C	1.48
CCc1ccc(C(=O)CN2C(=O)NC3(CCc4ccccc43)C2=O)cc1 (stereo not drawn)	-22.5
CCCN1Cc2cccc(C(=O)NC3CCCC3)c2C1=O	-18.9
Cc1ccc(NS(=O)(=O)c2c(C)[nH]c(C)c2C(=O)N2CCCC2)cc1	15.9
O=C(CN(C(=O)CCC(=O)Nc1nccs1)c1ccc2c(c1)OCO2)NCc1ccccc1	15.3
O=C(Nc1ccccc1C(=O)Nc1ccccc1)c1cccs1	-0.413
Cc1cc(C)c2c(N)c(C(=O)NCC3CCCCC3)sc2n1	6.61
